In publication PMC6212790 one finds binding signal data, which are given here for 94 sequences.

The other results are listed elsewhere or left out. At the low end of the ranking the order means little.

The experiment deals with T1, GST-Rok (full length) (UniProt O34857).
T1 sequence: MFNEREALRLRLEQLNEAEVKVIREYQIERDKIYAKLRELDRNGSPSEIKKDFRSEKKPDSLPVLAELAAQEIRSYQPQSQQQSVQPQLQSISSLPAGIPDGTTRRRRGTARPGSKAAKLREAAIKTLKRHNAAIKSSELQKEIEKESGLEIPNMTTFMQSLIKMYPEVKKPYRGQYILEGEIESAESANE
Description: protein binding microarray.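 Note: rank score from −0.5 (least bound) to 0.5 (best bound).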 The note with it: Rok is a gene silencer of Bacillus subtilis; high values mean tight binding; most listed sequences are background and not binding sites; double strand, one strand shown.
In the case of CTTATTGC, the binding signal came to 0.0358 E-score.

Sequence CATGCCAG registered a binding signal of -0.138 E-score. Under AACATTGC stands 0.133 E-score; under AGATGATA, 0.219 E-score. AGAAAGCC displayed a binding signal of -0.101 E-score.

Sequence ACTAGACG yielded a binding signal of -0.0512 E-score.

With CTAACCAA, the binding signal stood at 0.178 E-score. The result for CAATCGGG reads -0.12 E-score; that for ACATTGCG, 0.00807 E-score; that for AGTCCGAT, -0.025 E-score. The result for ATGAGGAA reads -0.168 E-score; that for AATAGCCC, 0.014 E-score; that for CCGTCAGC, -0.321 E-score. Regarding CGTGGCGC, the binding signal was -0.354 E-score. The sequence GCGAATCC gave a binding signal of -0.0665 E-score. For ATATCAAC, the binding signal came to 0.271 E-score. Turning to AGAGCTCT, the binding signal was -0.0778 E-score. AGTTCGGG returned a binding signal of -0.0319 E-score.

In turn, ACTTCCCT displayed a binding signal of 0.0316 E-score. Under CAATGATG stands 0.161 E-score; under CTACCCTA, 0.224 E-score.

GTTAGTTA came in with a binding signal of 0.258 E-score. The result for AAAGACCG reads -0.163 E-score; that for CATAGAAG, 0.23 E-score; that for AACAAGTT, 0.0961 E-score. Regarding GAAGCTTC, the binding signal is -0.0784 E-score.

The sequence TGCTACAA showed a binding signal of 0.307 E-score.

AGCGTGAC gave a binding signal of -0.254 E-score. Under CGTACACG stands -0.0387 E-score; under CCAGGGAG, -0.272 E-score; under AGGGGGAT, -0.433 E-score. GAGGCCAC yielded a binding signal of -0.162 E-score.

On to AACACCGC, for which the binding signal is -0.108 E-score. Sequence AACTAGAC showed a binding signal of 0.103 E-score. Under CTGTTAAC stands -0.0495 E-score; under AGAGGCCT, -0.313 E-score. Sequence ACGAGCAC came in with a binding signal of -0.0937 E-score. Under CTAGGGAA stands -0.0395 E-score; under AAAACTCG, -0.00184 E-score; under AATACCGA, 0.239 E-score. The result for AGGTGCTC reads -0.257 E-score.

GAGATATC had a binding signal of 0.181 E-score. AATCACGG showed a binding signal of -0.0252 E-score. Under AATTCAGC stands 0.0855 E-score; under AAGCTCCG, -0.0493 E-score; under CGCGAGAA, -0.0886 E-score. CTTGCCAA: the binding signal is -0.15 E-score. In the case of AAGGTGCC, the binding signal was -0.184 E-score. The result for CCGTTTGA reads -0.000462 E-score. Under TAAGGGGA stands -0.243 E-score; under GCTTGCTA, 0.101 E-score; under ACCACTCA, 0.182 E-score. Sequence CAAGGAAG returned a binding signal of -0.15 E-score. GACGAGAC displayed a binding signal of -0.163 E-score.

Regarding AGAGTCGG, the binding signal is -0.126 E-score. Turning to ATTAAACG, the binding signal came to 0.0731 E-score. The result for ACAGCCAG reads 0.00412 E-score; that for CGTGTCGA, -0.138 E-score.

GCGACAAA came in with a binding signal of -0.194 E-score. The result for GTCAAGAA reads -0.155 E-score; that for TCAAATAA, 0.00538 E-score; that for GGGATGGA, -0.269 E-score. In turn, CTTAAATA returned a binding signal of 0.103 E-score.

AGGACGTA displayed a binding signal of 0.169 E-score.

For the sequence ACATTCTA, the binding signal is 0.216 E-score. The result for CGTCCTCC reads -0.378 E-score. In turn, CGACATTC came in with a binding signal of -0.0254 E-score. The result for TGAGAGAA reads -0.095 E-score. On to CCAGTGAC, for which the binding signal is -0.108 E-score.

CGTCGGGC returned a binding signal of -0.306 E-score. Regarding GTTCATCA, the binding signal is -0.00863 E-score. For AATATATA, the binding signal was 0.469 E-score. Under ACAGTTGG stands -0.00878 E-score; under AAGGCCTC, -0.417 E-score. Turning to AGGTGCTG, the binding signal was -0.0848 E-score. On to GATTCCCC, for which the binding signal was -0.259 E-score. Under GAGCATGA stands -0.0489 E-score; under CCACTCAC, -0.034 E-score. Under GGGATAGA stands -0.162 E-score; under CGAGAGTA, 0.0024 E-score. Consider CTATCCAC, for which the binding signal is -0.0226 E-score. CCAATGCG had a binding signal of -0.115 E-score. ATTACACA returned a binding signal of 0.283 E-score. TCCTTGCA had a binding signal of -0.052 E-score.

With AATTTCAT, the binding signal was found to be 0.287 E-score. Under CGGTGTGC stands -0.231 E-score. Take AAAAGTGT: the binding signal came to 0.00996 E-score. The result for AGATTTAG reads 0.0884 E-score; that for AAGTTTCA, 0.138 E-score; that for TGGACACA, -0.151 E-score. GAGGCGGC yielded a binding signal of -0.203 E-score. Regarding GATAGAAA, the binding signal was determined as 0.307 E-score.

Regarding AAGACGAC, the binding signal was -0.209 E-score.

With ACCGTCAT, the binding signal was -0.0541 E-score.
